# PubChem BioAssay AID504333 (National Center for Advancing Translational Sciences (NCATS), 2011)
# Out of some 360,000 compounds screened, about 16,000 (4.4%) were called active. This list was built around the results that the source calls inconclusive (neither active nor inactive); the mix of calls is not that of the screen. Calls follow the shape of the dose curve; as a rule, active = well fitted inhibition curve with a large enough effect; inconclusive = small, poorly fitted or top-dose-only effect; inactive = no such curve, though single readings can be large or run the other way. Potencies of inconclusive entries are doubtful fits and often do not repeat.
# Biological target: Bromodomain adjacent to zinc finger domain protein 2B (Homo sapiens) (UniProt Q9UIF8)
# UniProt Q9UIF8, sequence (Q9UIF8 whole entry, looked up, the tested form may be a part): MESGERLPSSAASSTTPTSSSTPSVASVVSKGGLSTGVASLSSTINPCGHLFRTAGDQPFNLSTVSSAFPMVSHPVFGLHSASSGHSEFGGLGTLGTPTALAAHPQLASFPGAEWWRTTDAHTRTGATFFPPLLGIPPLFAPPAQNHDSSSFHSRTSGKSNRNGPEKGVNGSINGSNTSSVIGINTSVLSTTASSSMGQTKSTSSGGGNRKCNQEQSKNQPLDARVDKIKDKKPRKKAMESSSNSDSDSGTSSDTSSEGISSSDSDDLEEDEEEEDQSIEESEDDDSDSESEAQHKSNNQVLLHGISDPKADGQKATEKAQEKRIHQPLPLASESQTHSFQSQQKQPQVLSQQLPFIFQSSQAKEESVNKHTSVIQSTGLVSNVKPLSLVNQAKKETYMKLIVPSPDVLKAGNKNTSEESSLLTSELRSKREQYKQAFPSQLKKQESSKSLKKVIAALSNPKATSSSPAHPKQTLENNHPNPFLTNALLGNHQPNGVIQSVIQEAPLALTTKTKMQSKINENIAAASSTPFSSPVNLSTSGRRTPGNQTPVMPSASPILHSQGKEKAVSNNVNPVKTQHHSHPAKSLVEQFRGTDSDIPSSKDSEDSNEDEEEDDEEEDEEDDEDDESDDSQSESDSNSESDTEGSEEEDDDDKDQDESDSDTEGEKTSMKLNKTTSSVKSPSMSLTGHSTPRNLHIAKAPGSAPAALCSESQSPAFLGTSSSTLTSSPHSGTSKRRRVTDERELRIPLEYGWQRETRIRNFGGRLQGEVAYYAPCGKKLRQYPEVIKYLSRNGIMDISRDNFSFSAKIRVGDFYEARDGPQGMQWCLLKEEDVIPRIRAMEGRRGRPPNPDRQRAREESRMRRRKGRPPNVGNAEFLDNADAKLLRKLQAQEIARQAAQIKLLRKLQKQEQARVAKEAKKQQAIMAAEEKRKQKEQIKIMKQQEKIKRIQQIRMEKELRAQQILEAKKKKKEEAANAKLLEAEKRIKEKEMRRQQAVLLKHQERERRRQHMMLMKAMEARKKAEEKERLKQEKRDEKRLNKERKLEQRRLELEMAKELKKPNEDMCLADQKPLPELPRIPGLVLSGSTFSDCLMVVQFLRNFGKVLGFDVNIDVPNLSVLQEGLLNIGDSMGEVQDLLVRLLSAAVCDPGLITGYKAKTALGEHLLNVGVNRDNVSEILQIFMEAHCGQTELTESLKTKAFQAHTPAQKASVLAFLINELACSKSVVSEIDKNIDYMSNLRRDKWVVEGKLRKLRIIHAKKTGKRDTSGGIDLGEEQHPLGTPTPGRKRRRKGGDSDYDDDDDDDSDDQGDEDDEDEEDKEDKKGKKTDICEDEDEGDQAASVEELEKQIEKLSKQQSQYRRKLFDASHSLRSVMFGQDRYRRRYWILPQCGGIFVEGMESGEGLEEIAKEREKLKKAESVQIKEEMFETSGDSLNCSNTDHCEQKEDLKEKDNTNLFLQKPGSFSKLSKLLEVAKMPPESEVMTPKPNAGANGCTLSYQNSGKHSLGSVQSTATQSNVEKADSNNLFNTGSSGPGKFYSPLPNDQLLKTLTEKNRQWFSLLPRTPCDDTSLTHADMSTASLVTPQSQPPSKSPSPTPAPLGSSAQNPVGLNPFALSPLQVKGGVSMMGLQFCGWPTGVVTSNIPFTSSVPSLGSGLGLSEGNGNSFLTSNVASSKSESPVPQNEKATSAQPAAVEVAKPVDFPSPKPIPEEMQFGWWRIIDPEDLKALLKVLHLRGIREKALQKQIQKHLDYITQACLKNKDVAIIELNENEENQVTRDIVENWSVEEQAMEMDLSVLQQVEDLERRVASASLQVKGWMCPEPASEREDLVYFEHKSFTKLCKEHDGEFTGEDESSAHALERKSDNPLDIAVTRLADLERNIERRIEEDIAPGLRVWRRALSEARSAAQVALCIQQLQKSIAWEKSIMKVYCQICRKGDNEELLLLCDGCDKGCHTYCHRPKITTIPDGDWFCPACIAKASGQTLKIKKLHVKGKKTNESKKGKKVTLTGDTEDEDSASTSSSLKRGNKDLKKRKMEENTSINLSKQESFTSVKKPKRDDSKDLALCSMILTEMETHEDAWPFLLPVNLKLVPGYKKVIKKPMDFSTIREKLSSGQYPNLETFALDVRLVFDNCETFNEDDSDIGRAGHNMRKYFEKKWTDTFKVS
# Assay: qHTS Assay for Inhibitors of BAZ2B; also: nearly all actives have a fitted effect of over 60% in size
# Settings: AlphaScreen BAZ2B-H3K14Ac peptide displacement; series mostly up to 114 µM
# Procedure, shortened: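 Inhibition is scored as reduced AlphaScreen emission. The BAZ2B/b-H3(5-23)K14Ac complex (50 nM each) in PBS pH 7.4, 0.01% Tween-20 meets compound (up to 110 uM) for 30 min at RT before bead addition.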
# Potency is read from the fitted curve at half-maximal effect; tags tell the direction and shape of the fitted curve.
row,SMILES,Potency
1,COc1ccc(C(=O)C2CCN(CC(=O)Nc3ccc(OC)cc3OC)CC2)cc1,"inconclusive: 70.8 µM [inhibitor, single point]"
2,CCC(C)c1ccc(O)c(NC(=O)c2cccnc2)c1 (stereo not drawn),inactive
3,O=C1/C(=C/c2ccccc2F)SC(=S)N1CCC(=O)N1CCCCC1CCO (stereo not drawn),"inconclusive: 44.7 µM [inhibitor, partial curve]"
4,COc1cc2[nH]cc(C(=O)NCc3ccccc3)c(=O)c2cc1OC,"inconclusive: 89.1 µM [inhibitor, single point]"
5,CCN(CC)CCN1C(=O)C(=O)/C(=C(/O)c2c(C)[nH]c(C(=O)OC)c2C)C1c1ccc(C)o1 (stereo not drawn),"inconclusive: 89.1 µM [inhibitor, single point]"
6,O=C(O)c1cn(-c2ccc(N3CCCC3)c(F)c2)c2c(F)c(F)c(F)cc2c1=O,inactive
7,Cc1noc(C)c1S(=O)(=O)Nc1ccc(C(=O)N2CCCCC2)cc1,inactive
8,O=C(Nc1ccc(F)c(F)c1)c1ccc(-n2cncn2)c([N+](=O)[O-])c1,inactive
9,COc1ccc(NC(=O)CC2C(=O)N(c3ccc(F)cc3)C(=O)N2Cc2ccc3c(c2)OCO3)cc1 (stereo not drawn),inactive
10,COc1cc2c(cc1OC)C1=C(C#N)CCC(=NC(=O)c3ccco3)N1CC2,inactive
11,CCOc1ccc2c(c1)C(c1ccc(C)cc1)=NNC(c1ccc(C)cc1)=N2,"inconclusive: 31.6 µM [inhibitor, partial curve]"
12,COCCNC(=O)c1onc(CSc2ccc(C)c(C)c2)c1C(=O)O,"inconclusive: 89.1 µM [inhibitor, single point]"
13,Cc1c(C(=O)NC(c2ccccn2)C(F)(F)F)oc2c(F)cccc12 (stereo not drawn),inactive
14,COc1ccc(-c2ccc(C(C)=O)cc2)cc1[C@H]1[C@@H]2C=CCC[C@@]2(C)C(=O)N1Cc1ccccc1,"inconclusive: 70.8 µM [inhibitor, single point]"
15,CC(=O)N1N=C(c2ccc(Br)cc2)CC1c1cn(C)c2ccccc12 (stereo not drawn),"inconclusive: 35.5 µM [inhibitor, partial curve]"
16,OCC[C@H]1C[C@H](O)[C@@H](O)[C@]2(Cc3ccccc3O2)O1,inactive
17,COCc1nnc(NC(=O)c2ccc(S(=O)(=O)N3CCCC3)cc2)o1,active: 20 µM
18,COc1ccc(C(=O)COC(=O)C2CCC(=O)N2)cc1 (stereo not drawn),inactive
19,CC(=O)Nc1nonc1-c1nnc(SCc2ccc(Cl)cc2)n1C,inactive
20,Cc1cc(C)c2c(-n3cccc3)c(C(=O)NCCCN3CCCCC3C)sc2n1 (stereo not drawn),"inconclusive: 100 µM [inhibitor, single point]"
21,O=C(COc1ccccc1)Nc1c2c(nn1-c1ccccc1)CS(=O)C2 (stereo not drawn),inactive
22,C=CCSC1=C(C#N)C(c2ccccc2OC)CC(=O)N1 (stereo not drawn),inactive
23,COc1ccc(CNc2nc(=S)[nH]c3cc(OC)c(OC)cc23)cc1,"inconclusive: 31.6 µM [inhibitor, single point]"
24,CC1=NN(c2ccccc2)C(=O)/C1=C\c1cc(C)n(-c2cccnc2)c1C,"inconclusive: 5.62 µM [inhibitor, full curve, poor fit]"
25,Clc1ccc(SCCn2cncn2)cc1,"inconclusive: 89.1 µM [inhibitor, single point]"
26,O=c1[nH]cnc2c1c(-c1ccccc1)cn2-c1cccc(Cl)c1,"inconclusive: 31.6 µM [inhibitor, full curve]"

row,SMILES,Potency
1,O=C(O)C1CC1C(=O)N1CCN(c2ccc(Cl)c(Cl)c2)CC1 (stereo not drawn),"inconclusive: 89.1 µM [inhibitor, single point]"
2,N#C/C(=C/c1ccc(N2CCOCC2)o1)c1nc2ccccc2[nH]1,"inconclusive: 44.7 µM [inhibitor, partial curve]"
3,Nc1nc2n(n1)C(c1cccs1)CC(c1ccc(F)cc1)N2 (stereo not drawn),"inconclusive: 56.2 µM [inhibitor, partial curve]"
4,CCn1nnnc1SCC(=O)N1N=C(c2cccs2)CC1c1cccs1 (stereo not drawn),inactive
5,COC(=O)c1c(NC(=O)CN2C(=O)NC3(CCc4ccccc4C3)C2=O)sc2c1CCCCC2 (stereo not drawn),inactive
6,CC(=O)NC(c1cc(Cl)c2ccccc2c1O)C(C)C (stereo not drawn),inactive
7,CCN1CCN(c2ncnc3c2nnn3Cc2ccccc2)CC1,inactive
8,O=C(Oc1ccccc1)Oc1ccc2c(c1)oc(=O)c1ccccc12,"inconclusive: 100 µM [inhibitor, single point]"
9,NS(=O)(=O)c1ccc(CCNCC(=O)NCc2ccccc2Cl)cc1,active: 50.1 µM
10,CN1C(=O)c2ccccc2Sc2ccc(NC(=O)N3CCN(c4ccccc4F)CC3)cc21,inactive
11,COc1ccc2[nH]c(C(O)(Cc3cccnc3)Cc3cccnc3)cc2c1,"inconclusive: 89.1 µM [inhibitor, single point]"
12,CN1/C(=C\C(=O)c2ccccc2Cl)c2ccccc2CC1(C)C,"inconclusive: 79.4 µM [inhibitor, single point]"
13,O=C(Cc1c(F)cccc1Cl)Nc1ccccn1,"inconclusive: 89.1 µM [inhibitor, single point]"
14,N#Cc1nc(COc2ccc(Cl)cc2Cl)oc1N1CCOCC1,active: 44.7 µM
15,CC1c2cccn2CCN1S(=O)(=O)c1ccccc1 (stereo not drawn),"inconclusive: 50.1 µM [inhibitor, single point]"
16,Cc1ccc(OCC(=O)Nc2ccc(S(=O)(=O)Nc3ncccn3)cc2)c(C(C)(C)C)c1,inactive
17,CCCS(=O)(=O)N1CCN(CC2CC=CCC2)CC1 (stereo not drawn),active: 56.2 µM
18,O=C(O)CCCNc1cc(N2CCC3(CC2)OCCO3)c2noc3c2c1C(=O)c1ccccc1-3,active: 14.1 µM
19,O=C(CSc1ccc(-c2ccccn2)nn1)N1CCCc2ccccc21,active: 8.91 µM
20,CS(=O)(=O)c1ccc(C(=O)Nc2ccc(-c3nc4ccccc4[nH]3)cc2)cc1,"inconclusive: 79.4 µM [inhibitor, single point]"
21,CCOCCCNC(=O)NC(CCC(C)C)c1c(-n2cccc2)sc2c1CCN(C)C2 (stereo not drawn),"inconclusive: 79.4 µM [inhibitor, single point]"
22,Cc1cc(NC(=O)Cn2c(=O)n(Cc3ccccc3)c(=O)c3ccccc32)no1,inactive
23,Cc1ccc(-c2cc(C(=O)N3CCN(c4ccccc4O)CC3)c3ccccc3n2)o1,"inconclusive: 50.1 µM [inhibitor, partial curve]"
24,CCOC(=O)C(=NC(C)C)NNc1cc(Cl)ccc1Cl,"inconclusive: 89.1 µM [inhibitor, single point]"
25,O=C(c1ccccc1)c1nc2c(n1O)CCCCC2,active: 79.4 µM
26,COc1cccc(C(=O)Oc2ccc(/C=N/Nc3ccc(C(=O)O)cc3)cc2OC)c1,active: 50.1 µM

row,SMILES,Potency
1,O=C1/C(=C\c2cccnc2)SC(=S)N1C1CCS(=O)(=O)C1 (stereo not drawn),inactive
2,CN(CC1COc2ccccc2O1)C(=O)c1ccc(Cl)c(S(=O)(=O)N2CCCCCC2)c1 (stereo not drawn),inactive
3,COc1ccc(OC)c(N)c1,active: 50.1 µM
4,CCOC(=O)c1c(C)oc2nc(C)nc(N3CCN(c4ccccc4)CC3)c12,"inconclusive: 39.8 µM [inhibitor, single point]"
5,O=C(O)CCNc1ccc(NCCC(=O)O)c2c1C(=O)c1ccccc1C2=O,active: 11.2 µM
6,COc1ccc(Cl)cc1NC(=O)C1CCN(C(=O)Nc2ccccc2)CC1,inactive
7,CCOc1ncccc1C(=O)Nc1cc(S(=O)(=O)N2CCCCC2)ccc1OC,inactive
8,Oc1ccc(/C=N/N2CCCCC2)c(O)c1O,"inconclusive: 79.4 µM [inhibitor, single point]"
9,O=C(CCn1c(=O)sc2ccccc21)NC1CCCCC1,inactive
10,O=C(CCNC(=O)c1ccc([N+](=O)[O-])cc1)NCC1COc2ccccc2O1 (stereo not drawn),inactive
11,Cc1cn(CCC(=O)Nc2ccc(N3CCOCC3)cc2)c2ccccc12,"inconclusive: 50.1 µM [inhibitor, partial curve]"
12,Cc1cccc(N2CCN(Cc3nc(-c4ccc(F)cc4F)oc3C)CC2)n1,"inconclusive: 25.1 µM [inhibitor, partial curve]"
13,CCCCCCN1C=C/C(=C\C=C(C#N)C#N)c2ccccc21,active: 3.16 µM
14,COc1cccc(N2C(=O)N(CC(=O)NCc3cccc(OC)c3OC)c3ccccc3S2(=O)=O)c1,inactive
15,S=C(NCC1CCCO1)N1CCN(Cc2ccccc2)CC1 (stereo not drawn),active: 20 µM
16,CCOC(=O)c1cnc2ccc(C)cc2c1NCCO,inactive
17,Cc1ccc(-c2ccc(/C=N/N=C3/NC(=O)C(CC(=O)O)S3)o2)c([N+](=O)[O-])c1 (stereo not drawn),"inconclusive: 44.7 µM [inhibitor, partial curve]"
18,CC(=O)OCC1=C(C(=O)O)N2C(=O)C(NC(=O)c3ccc(COc4c(C)cccc4Cl)o3)C2SC1 (stereo not drawn),"inconclusive: 50.1 µM [inhibitor, partial curve]"
19,COc1cccc(-n2ccnc2SCC(=O)N2CCc3ccccc32)c1,"inconclusive: 79.4 µM [inhibitor, single point]"
20,Nc1ccc(N(c2ccccc2)c2ccc(N)cc2)cc1,active: 25.1 µM
21,BrC(/C=N/N1CCN(Cc2ccccc2)CC1)=C/c1ccccc1,"inconclusive: 35.5 µM [inhibitor, partial curve]"
22,O=C(NCc1ccc(Cl)cc1Cl)c1ccc2nc[nH]c2c1,"inconclusive: 56.2 µM [inhibitor, partial curve]"
23,Cc1cc(C(=O)COC(=O)c2ccc(O)cc2)c(C)n1-c1ccccc1F,"inconclusive: 50.1 µM [inhibitor, partial curve]"
24,COc1ccc(C(=O)NCC(c2cccnc2)N2CCc3ccccc3C2)cc1OC (stereo not drawn),active: 5.01 µM
25,O=C(Nc1ccccc1)c1cnc2n(c1=O)CCS2,inactive
26,C=CCc1cc(OC)ccc1OCCN(C)Cc1ccccc1,active: 50.1 µM
